Laboratory results reported in PubChem BioAssay AID1963848 (Molecular Pharmacology Branch, DTP, NCI, 2024).
Not every entry of the source has a single result; some have several. This is not the full list of results. The source may hold further records. The records of an entry repeat one measurement (runs, samples, wells, individuals or studies).

System: 379773-124-R-J2-PDC spheroid viability
Assay: Anticancer human tumor 379773-124-R-J2-PDC patient-derived endometrial carcinoma cell line growth inhibition [POLQ]
Conditions: stronger effect = lower value, spheroids with HUVEC and MSC
Experimental: Multicellular complex tumor spheroid response to Polymerase (POL) inhibitors (novobiocin, ART-558, RP6685) in combination with a variety of drugs and investigational agents in selected tumor cell lines
The POL inhibitors (novobiocin, ART-558, and RP6685) were evaluated both individually and in combination with standard of care and investigational anticancer small molecules within a complex spheroid model of solid tumors. . Complex spheroids include a stromal component modeled by human endothelial cells (HUVEC) and fibroblasts modeled by human mesenchymal stem cells (MSCs). The concentration ranges selected for each drug and investigational agent were based upon clinically achievable concentrations if the clinical Cmax of the agent was known.
Compounds. […] If the clinical Cmax for an agent had not been determined, the highest concentration tested was 10 microM, except for SN-38, which was tested at a high concentration of 1 microM. […]
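Note: spheroids exposed to drugs for seven days before readout; percent viability relative to DMSO vehicle control taken as 100%.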

Q: What does the source list for `COC1C(OC(N)=O)C(O)C(Oc2ccc3c(O)c(NC(=O)c4ccc(O)c(CC=C(C)C)c4)c(=O)oc3c2C)OC1(C)C` (configuration not stated)?
A: viability, T/C (compound alone 0.1 µM): 85.8, 90.3, 85.7, 88.3, 77.4, 72.8, 86.3, 84.3, 78.4, 97.9, 99, 87.6, 93.5%; viability, T/C (compound alone 1 µM): 101, 86, 78, 96.6, 86.5, 92.9, 73.6, 86.8, 94.5, 87, 92.1, 104, 88.6%
